# Reference: PubChem BioAssay (NCATS)
# Where “and” joins values, the source holds several entries; their conditions need not be identical. Equal entries are not always repeated. Inconclusive means that the source gave no clear call. Such entries were picked first, then a sample of the others. For some of these results: Potencies of inconclusive entries are doubtful fits and often do not repeat. More than one record can exist for a structure, and the calls need not agree. Calls of active or inactive are those of the source. Unless noted, calls follow the shape of the dose curve; as a rule, active = well fitted curve in the direction sought with a large enough effect; inconclusive = small, poorly fitted or top-dose-only effect, or another doubt; inactive = no such curve, though single readings can be large; an effect the other way counts as inactive or inconclusive.
# How the values were obtained:
# [1] = P-glycoprotein substrates identified in KB-8-5-11 adenocarcinoma cell line, qHTS therapeutic library screen (AID 1346987); also: nearly all actives have a fitted effect of over 65% in size; also: potency is read from the fitted curve at half-maximal effect
# How it was run: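 KB-8-5-11: colchicine-selected sub-line of KB-3-1 over-expressing P-gp; assay medium lacked colchicine. 72 h drug exposure at 37 degree C, CellTiter-Glo.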
# [2] = qHTS of pediatric cancer cell lines to identify multiple opportunities for drug repurposing: Primary screen for SK-N-MC cells (AID 1347093); details: SK-N-MC viability, CellTiter-Glo luminescence, 48 h; activity change, negative = cytotoxic: at 46 µM (top of the series); also: potency is read from the fitted curve at half-maximal effect
# How it was run: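 Metabolically active cells were quantified by ATP-dependent luminescence (CellTiter-Glo, 15 min at room temperature) following 48 h treatment. Cells had been plated at 500-1,000 per well and settled for 5 h beforehand.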
# [3] = qHTS of pediatric cancer cell lines to identify multiple opportunities for drug repurposing: Primary screen for NB-EBc1 cells (AID 1347095); also: potency is read from the fitted curve at half-maximal effect;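 as to activity change, negative = cytotoxic: plate controls were DMSO neutral control for no effect and bortezomib for full effect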
# How it was run: (§1)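 CRCs from 8- or 11-point titrations (lowest final 0.59 nM NPC, 0.78 nM MIPE). Cell viability: CellTiter-Glo after 48 h incubation, 15 min room-temperature development, luminescence imaging.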
# [4] = qHTS of pediatric cancer cell lines to identify multiple opportunities for drug repurposing: Primary screen for SK-N-SH cells (AID 1347098); details: SK-N-SH viability, CellTiter-Glo luminescence, 48 h; activity change, negative = cytotoxic: at 57 µM (top of the series); also: potency is read from the fitted curve at half-maximal effect; nearly all actives have a fitted effect of over 65% in size
# How it was run: (§2)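 Cells (500-1,000/well) rested 5 h, then received compounds for 48 h; metabolically active cells were measured by CellTiter-Glo luminescence. Final concentrations spanned up to 46 µM (MIPE, 11-point) or 0.59 nM-46 µM (NPC, 8-point) in primary screens, 11-point in follow-ups.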
# [5] = qHTS of pediatric cancer cell lines to identify multiple opportunities for drug repurposing: Primary screen for OHS-50 cells (AID 1347103); also: nearly all actives have a fitted effect of over 40% in size; also: potency is read from the fitted curve at half-maximal effect;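 as to activity change, negative = cytotoxic: plate controls were DMSO neutral control for no effect and bortezomib positive control for full effect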
# How it was run: as §2
# [6] = Primary qHTS for small molecule stabilizers of the endoplasmic reticulum resident proteome: Secreted ER Calcium Modulated Protein (SERCaMP) assay (AID 1508630); details: SH-SY5Y GLuc-SERCaMP (Gaussia luciferase released on ER calcium loss) secretion, thapsigargin, luminescence; activity change, negative = inhibition: at 38.4 µM (top of the series); also: potency is read from the fitted curve at half-maximal effect; as to activity change, negative = inhibition: % is scaled to controls: 0 for no effect and ±100 for the full control effect
# How it was run: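 GLuc-SERCaMP-expressing SH-SY5Y cells, pretreated 16 h with compound, are challenged with thapsigargin to empty ER calcium stores; after 4 h, coelenterazine is added directly to the medium and luminescence is imaged.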
# [7] = Primary qHTS for inhibitors of nuclear receptor binding SET domain protein 2 (NSD2) in an isogenic RCH-ACV NSD2 p.E1099K mutant (9B) (AID 1645876); also: potency is read from the fitted curve at half-maximal effect; nearly all actives have a fitted effect of over 70% in size
# [8] = Primary qHTS for inhibitors of nuclear receptor binding SET domain protein 2 (NSD2) in an RCH-ACV wild type WT cells (2C) (AID 1645877); details: activity change, negative = cell killing: at 44.9 µM (top of the series); also: nearly all actives have a fitted effect of over 70% in size; also: potency is read from the fitted curve at half-maximal effect; as to activity change, negative = cell killing: % is scaled to controls: 0 for no effect and ±100 for the full control effect
# [9] = Primary redox qHTS assay for identification of artifact compounds. (AID 1845223);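 also: 0% = DMSO and 100% = reference compound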
# How it was run: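 Amplex Red (25 uM) and HRP (250 mU/mL) in HBSS, with compounds for 15 min, then 250 uM DTT for 30 min, room temperature, dark. Fluorescence 525/598 nm read; normalized to DMSO and 10 uM DA3003; Hill fit.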
# HEK293 = assay: Cytotoxic Profiling of Annotated Libraries Using Quantitative High-Throughput Screening (AID 1296008); details: Five cell lines viability, CellTiter-Glo ATP luminescence, 48-72 h; max response: hits give low values; also: nearly all actives have a fitted effect of over 60% in size; also: potency is read from the fitted curve at half-maximal effect; as to max response: % is scaled to controls: 0 for no effect and ±100 for the full control effect
# How it was run: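 Compounds were pin-transferred onto cells and incubated 48 or 72 hr at 37 degree Celsius, 95% humidity. CellTiter-Glo was added, plates sat 10 min at room temperature, then ATP-coupled luminescence was imaged as the viability read-out.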
# MKL-2 = assay: qHTS assay to identify novel small-molecules to repurpose for Merkel cell carcinoma treatment (AID 1296009); details: MCC and control cell lines, CellTiter-Glo viability, 72 h; activity change, negative = cytotoxicity: at 46 µM (top of the series); also: nearly all actives have a fitted effect of over 60% in size; also: potency is read from the fitted curve at half-maximal effect
# How it was run: (§3)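 Cells exposed to NPC (8-point) and MIPE (11-point) compound dilutions for 72 hr at 37 degree celsius; viability read by CellTiter-Glo luminescence, normalized to no-cell and DMSO in-plate controls.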
# WaGa = assay: as above; details: MCC and control cell lines, CellTiter-Glo viability, 72 h; series mostly up to 46 µM
# How it was run: as §3
# OV90 = assay: Primary qHTS to identify gynecologic anti-cancer compounds using libraries of approved drugs and bioactive compounds (AID 1345084); details: Gynecologic cancer cell panel viability, ATPlite luminescence, 48 h; series mostly up to 57.5 µM; also: potency is read from the fitted curve at half-maximal effect; nearly all actives have a fitted effect of over 55% in size
# How it was run: (§4)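 Luminescence from the ATPlite ATP-monitoring reagent indicates viable cell number; lower signal means cytotoxicity. Cells received compound 16 h after seeding and were exposed for 48 h across five concentrations.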
# SKOV3 = assay: as above; details: Gynecologic cancer cell panel viability, ATPlite luminescence, 48 h; series mostly up to 57.5 µM
# How it was run: as §4
# [10] = Drug repurposing screens with cells derived from glioblastoma tumor samples (AID 1345199); details: GBM patient neurospheres viability, ATP luminescence, 48 h; Potency: tumour line A unless noted; activity, negative = cell killing: at 46 µM (top of the series), tumour line A unless noted; also: potency is read from the fitted curve at half-maximal effect; nearly all actives have a fitted effect of over 40% in size
# How it was run: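 Four patient lines of CD133+ GBM neurospheres were screened at several concentrations; hits were retested in those lines plus three slower-growing GBM lines, using 48-hour treatment and ATP-based viability.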
# [11] = qHTS of pediatric cancer cell lines to identify multiple opportunities for drug repurposing: Primary screen for Saos-2 cells (AID 1347097); details: Saos-2 viability, CellTiter-Glo ATP luminescence, 48 h; activity change, negative = cytotoxic: at 46 µM (top of the series); also: nearly all actives have a fitted effect of over 40% in size; also: potency is read from the fitted curve at half-maximal effect; as to activity change, negative = cytotoxic: % is scaled to controls: 0 for no effect and ±100 for the full control effect
# How it was run: as §1
# [12] = qHTS of pediatric cancer cell lines to identify multiple opportunities for drug repurposing: Primary screen for BT-12 cells (AID 1347101); also: potency is read from the fitted curve at half-maximal effect; nearly all actives have a fitted effect of over 25% in size
# How it was run: as §2
# [13] = A High-Content qHTS Against Drug Library for the Identification of Small Molecules that Inhibit DYT1 Early Onset Primary Dystonia-Associated Cell Pathology (AID 1645839; calls by dose curve; also: potency is read from the fitted curve at half-maximal effect)
# How it was run: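 Readout: %pathology, the punctate EGFP-TorsinA distribution from imaging, as the primary channel and cell count as the toxicity counterscreen. HEK293 Flp-In cells expressing delE TorsinA were induced with tetracycline and treated with compound for 48 h.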
# Tags tell the direction and shape of the fitted curve.
smiles,measurement,setting,value
CC(=O)O[C@]1(C(C)=O)CC[C@H]2[C@@H]3C=C(Cl)C4=CC(=O)[C@@H]5C[C@@H]5[C@]4(C)[C@H]3CC[C@@]21C,Potency,[1],"inconclusive: 16.4 µM [inhibitor, partial curve, poor fit] and inconclusive: 14.6 µM [inhibitor, partial curve]"
same,Potency,[2],"inconclusive: 33.5 µM [cytotoxic, single point]"
same,Potency,[3],inactive
same,Potency,[4],"inconclusive: 0.0015 µM [cytotoxic, full curve, poor fit]"
same,Potency,[5],active: 34.7 µM
same,Potency,[6],inactive
same,Potency,[7],"inconclusive: 33.5 µM [inhibitor, single point] and inconclusive: 23 µM [inhibitor, single point]"
same,Potency,[8],"inconclusive: 9.16 µM [inhibitor, partial curve]"
same,Potency,[9],inactive
same,Potency,HEK293,"inconclusive: 9.44 µM [inhibitor, partial curve, poor fit]"
same,Potency,MKL-2,"inconclusive: 13.3 µM [inhibitor, partial curve, poor fit]"
same,Potency,WaGa,"inconclusive: 26.6 µM [inhibitor, partial curve]"
same,Potency,OV90,"inconclusive: 39.8 µM [cytotoxic, single point]"
same,Potency,SKOV3,"inconclusive: 39.8 µM [cytotoxic, single point]"
same,Potency,[10],"inconclusive: 35.5 µM [inhibitor, single point]"
CC(C)Cn1cnc2c(N)nc3ccccc3c21,Potency,[1],"inconclusive: 14.6 µM [inhibitor, partial curve, poor fit]"
same,Potency,[7],"inconclusive: 5.74 µM [inhibitor, partial curve, poor fit]"
same,Potency,[8],"inconclusive: 12.9 µM [inhibitor, partial curve, poor fit]"
same,Potency,HEK293,"inconclusive: 13.2 µM [inhibitor, partial curve]"
same,Potency,MKL-2,"inconclusive: 18.7 µM [inhibitor, partial curve]"
same,Potency,WaGa,active: 20.9 µM
NS(=O)(=O)c1cc(C(=O)NN2C[C@H]3[C@H]4CCC(C4)[C@H]3C2)ccc1Cl,Potency,[11],inactive
same,Potency,[7],"inconclusive: 29.9 µM [inhibitor, single point]"
same,Potency,[8],"inconclusive: 23.7 µM [inhibitor, single point]"
same,max response,HEK293,inactive: 4.38%
C[N+]1(CC2COC(c3ccccc3)(C3CCCCC3)O2)CCCCC1 (centres undefined),Potency,[2],"inconclusive: 18.8 µM [cytotoxic, single point]"
same,Potency,[12],"inconclusive: 11 µM [cytotoxic, partial curve]"
same,Potency,[5],"inconclusive: 24.6 µM [cytotoxic, single point]"
same,Potency,HEK293,"inconclusive: 33.5 µM [inhibitor, single point]"
same,Potency,MKL-2,active: 5.96 µM
same,Potency,OV90,"inconclusive: 39.8 µM [cytotoxic, single point]"
O=c1cc[nH]c(=S)[nH]1,Potency,[5],inactive
same,Potency,[7],"inconclusive: 26.6 µM [inhibitor, partial curve, poor fit]"
same,outcome,HEK293,inactive
same,Potency,[10],"inconclusive: 25.1 µM [inhibitor, partial curve, poor fit]"
CCCC(C(=O)OCCN(CC)CC)(c1ccccc1)c1ccccc1,Potency,[2],"inconclusive: 18.8 µM [cytotoxic, partial curve, poor fit]"
same,Potency,[3],"inconclusive: 29.9 µM [cytotoxic, single point]"
same,Potency,[4],active: 19.4 µM
same,Potency,[12],"inconclusive: 38.9 µM [cytotoxic, single point]"
same,Potency,[6],"inconclusive: 28.2 µM [inhibitor, single point]"
same,Potency,[13],"inconclusive: 28.2 µM [inhibitor, partial curve, poor fit]"
same,Potency,[8],active: 11.9 µM
same,Potency,HEK293,"inconclusive: 26.6 µM [inhibitor, single point]"
same,Potency,MKL-2,"inconclusive: 37.6 µM [inhibitor, single point]"
same,Potency,WaGa,"inconclusive: 33.5 µM [inhibitor, single point]"
same,Potency,OV90,active: 12.6 µM
same,Potency,SKOV3,"inconclusive: 35.5 µM [cytotoxic, single point]"
COc1ccc(C(Cl)=C(c2ccc(OC)cc2)c2ccc(OC)cc2)cc1,Potency,[1],"inconclusive: 29.1 µM [inhibitor, single point]"
same,Potency,[3],"inconclusive: 33.5 µM [cytotoxic, single point]"
same,Potency,[11],"inconclusive: 29.9 µM [cytotoxic, partial curve, poor fit]"
same,Potency,[12],"inconclusive: 38.9 µM [cytotoxic, single point]"
same,Potency,[5],"inconclusive: 34.7 µM [cytotoxic, single point]"
same,Potency,[8],inactive
same,Potency,HEK293,"inconclusive: 33.5 µM [inhibitor, single point]"
same,Potency,MKL-2,inactive
same,Potency,WaGa,inactive
same,Potency,SKOV3,"inconclusive: 0.562 µM [rising, full curve]"
CCOc1ccccc1C(N)=O,Potency,[1],inactive
same,Potency,[4],active: 30.7 µM
same,Potency,[6],"inconclusive: 25.1 µM [inhibitor, single point]"
same,Potency,[8],"inconclusive: 29.9 µM [inhibitor, single point]"
same,max response,HEK293,inactive: -2.36%
same,Potency,MKL-2,"inconclusive: 33.5 µM [inhibitor, single point]"
same,Potency,WaGa,"inconclusive: 33.5 µM [inhibitor, single point]"
